Test results as given in PubChem BioAssay AID1508624 (National Center for Advancing Translational Sciences (NCATS), 2021).
Among all 48,000 compounds or so, about 120 (0.25%) were called active. About 4% were inconclusive and are not listed. The call rests on the fitted dose curve; in most records, active means well fitted activation curve with a large enough effect; inconclusive means small, poorly fitted or top-dose-only effect, or another doubt; inactive means no such curve, though single readings can be large or run the other way. This is one part of the list.

Assay: Primary qHTS for Identification of Small Molecule Activators of Huntingtin-Antisense Promoter Activity; further: nearly all actives have a fitted effect of over 55% in size
Settings: HEK293 HTT-AS promoter firefly luciferase reporter (activity 0% = vehicle and -100% = no light), 24 h; series mostly up to 57.5 µM; activity change, positive = activation: at the top concentration
Summary of the method: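 HEK293 luciferase promoter-reporter cells (2,500/well) plated 24 h, then compounds added at up to 57.5 uM final for 24 h at 37 °C. Firefly luminescence by Dual-Glo, normalized to vehicle (0%) and zero RLU (-100%).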

Activity change, positive = activation, inactive:
Cc1ccc(-n2ncc3c(NCCCc4ccccc4)ncnc32)cc1 25.7%, COc1ccc(NC(=O)CSc2nc3nc(C)c(Cc4ccc(C)cc4)c(C)n3n2)cc1OC -5.6%, Nc1ncnc2c1c(-c1cccc(OCc3ccccc3)c1)cn2C1CC(CN2CCC2)C1 (configuration not stated) -0.823%, CCCNC(=O)C1CCC(Cn2c(=O)c3sccc3n(Cc3ccccc3C)c2=O)CC1 (configuration not stated) -2.38%, COc1ccc(Cl)cc1-n1nnc(-c2nc(-c3ccc4c(c3)OCO4)no2)c1C -2.62%, COc1cc2[nH]c(=O)n(Cc3ccc(C(=O)NCc4ccccc4)cc3)c(=O)c2cc1OC -26%, COc1ccc(Nc2nc(-c3cccc(Cl)c3)c3c(n2)-c2ccccc2OC3)cc1 -17.5%, CCOc1ccccc1CNC(=O)Cc1ccc(NC(=O)N2CCCCc3ccccc32)cc1 -15.6%, CCOc1ccc(NC(=O)CSc2nc3ccsc3c(=O)n2C(C)CC)cc1 (configuration not stated) -3.37%, CCOc1ccc(CCNC(=O)CCc2c(C)nc3c(c(C)nn3-c3ccc(C)c(C)c3)c2C)cc1 3.18%, Cc1cccc2c1-c1sc(C(=O)N3CCN(c4ccccc4)CC3)cc1CO2 -1.51%, COc1ccc(-c2noc(N3CCC(C(=O)N4CCN(c5ccccc5OC)CC4)CC3)n2)cc1 -58.4%, CCCCNS(=O)(=O)c1ccc2nc(-c3cccnc3)cc(C(=O)NCCCOC(C)C)c2c1 14.6%, CCOc1cccc(Nc2nn(-c3ccc(OC(F)(F)F)cc3)nc2C(C)=O)c1 -2.33%, CCOC(=O)c1cnc2c(C)c(Cl)ccc2c1NCCc1ccc(OC)c(OC)c1 -11.7%, Cc1nnc(C)n1-c1ccc(C(=O)Nc2cccc(Br)c2)cc1 -9.98%, COCCCNC(=O)NC(CCC(C)C)c1c(-n2cccc2)sc2c1CCN(C)C2 (configuration not stated) -0.673%, Cc1c(Cl)cccc1NC(=O)CCCn1nc(C)c2sc3ccccc3c2c1=O -1.65%, CCC1CCCCN1S(=O)(=O)c1ccc(NC(=O)c2cc(=O)c3c(C)cc(C)cc3o2)cc1 (configuration not stated) -10.7%, COc1cccc(N2CCN(c3c4c(nc5nncn35)CCC4)CC2)c1 -47.5%, Cc1cccc(Cn2cc3c(=O)n(CC(=O)Nc4c(C)cccc4C)nc-3c3cc(F)ccc32)c1 -16.4%, CC(C)Sc1nc2sc3c(c2c(=O)n1Cc1ccccc1)CCCC3 -2.23%, CCCCCCCCc1ccc(CCC(N)(CO)CO)cc1 -16.4%, Cc1ccc(NC(=O)C2CCN(S(=O)(=O)c3c(C)noc3C)CC2)cc1 -5.77%, CC1(C)CC(=O)c2cc(-c3nc(-c4ccccc4)cs3)c(=O)[nH]c2C1 -9.62%, O=C(NCCN1CCN(c2ccccc2)CC1)Nc1cccc(Br)c1 -7.1%, Cc1cc(N2CCN(c3cccc(C)c3C)CC2)n2cnnc2n1 -17.1%
